Several values for one entry are separate records, joined by “and”; a condition that tells them apart may be missing. Equal entries are not always repeated. Screen size: about 410,000 compounds; about 6,400 (1.6%) were called active. This list was built around the results that the source calls inconclusive (neither active nor inactive); the mix of calls is not that of the screen. The call rests on the fitted dose curve; in most records, active means well fitted inhibition curve with a large enough effect; inconclusive means small, poorly fitted or top-dose-only effect; inactive means no such curve, though single readings can be large or run the other way. Where the call is inconclusive, the potency comes from a doubtful curve fit.
target: Glucagon-like peptide 1 receptor (Homo sapiens) (UniProt P43220); assay: qHTS of GLP-1 Receptor Inverse Agonists (Inhibition Mode); conditions: HEK293 GLP-1R CRE-luciferase, luminescence, 24 h, GLP-1R form is constitutively active; activity change, negative = inhibition: at 38.3 µM (top of the series) unless noted; further: nearly all actives have a fitted effect of over 55% in size
Sequence of UniProt P43220 (P43220 whole entry, looked up): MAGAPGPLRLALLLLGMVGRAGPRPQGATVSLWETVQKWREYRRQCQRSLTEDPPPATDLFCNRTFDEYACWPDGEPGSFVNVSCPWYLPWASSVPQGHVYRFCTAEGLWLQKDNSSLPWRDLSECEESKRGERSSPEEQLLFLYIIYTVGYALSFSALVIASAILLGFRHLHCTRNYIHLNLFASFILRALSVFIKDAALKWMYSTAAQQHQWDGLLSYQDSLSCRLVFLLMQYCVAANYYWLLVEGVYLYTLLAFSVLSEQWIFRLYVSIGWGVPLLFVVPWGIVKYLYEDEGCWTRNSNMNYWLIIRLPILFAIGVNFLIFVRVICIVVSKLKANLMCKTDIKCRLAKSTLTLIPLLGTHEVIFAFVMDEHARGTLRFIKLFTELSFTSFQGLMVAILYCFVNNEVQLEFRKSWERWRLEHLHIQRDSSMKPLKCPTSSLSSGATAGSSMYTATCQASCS
Summary of the method: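 HEK293 cells stably co-expressing constitutively active GLP-1R and a cAMP-responsive luciferase reporter were seeded in DMEM with 10% Nu serum, given compounds after 12 h, and incubated 24 h at 37 deg C. Luminescence was then read.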
On the % scale 0 is the no-effect control and ±100 the full control effect; potency means the concentration at half of the fitted maximal effect; tags describe the fitted curve by direction and shape.

Potency, active:
CCOc1cccc(C(=O)Nc2ccc(S(=O)(=O)N(Cc3ccccc3)c3ccccc3)cc2)c1 3.16 µM
Cc1cc(C)n(CC(O)Cn2c3ccccc3c3ccccc32)n1 (configuration not stated) 10 µM

Potency, inactive:
COc1ccc(CCNC(=O)c2sc3nc4n(c(=O)c3c2C)CCCC4)cc1OC
C/C(=N/OC(=O)c1ccc(C)cc1)c1cccs1
CC(c1ccccc1)n1c(-c2cccs2)nc2c(c(=O)c3ccccc3n2C)c1=O (configuration not stated)
CCC(C)n1c(=N)c(C(=O)NCc2ccccc2)cc2c(=O)n3cc(C)ccc3nc21 (configuration not stated)
CC1CCCCN1C(=O)CSc1nnc(-c2ccccc2F)o1 (configuration not stated)
CSc1nc2n(n1)C(c1ccccn1)C1=C(CC(C)(C)CC1=O)N2 (configuration not stated)
COc1ccc(C(=O)NCCCNC(=O)c2ccc(C)nc2)cc1
COCCCNC(=O)CS(=O)Cc1nc(-c2cccc(C)c2)oc1C (configuration not stated)

Potency, inconclusive:
COc1ccc(OCCN2CCN(S(=O)(=O)c3ccccc3C(F)(F)F)CC2)cc1 10 µM [inhibitor, partial curve, poor fit]
CSc1ccc(CNCCCN(C)C)cc1 3.98 µM [inhibitor, partial curve, poor fit]
Cc1csc(N(C(=O)c2ccccc2F)c2ccccc2)n1 7.94 µM [inhibitor, partial curve, poor fit]
CCOC(=O)C1=CCC(c2ccccc2)N(S(=O)(=O)c2ccccc2C)C1 (configuration not stated) 28.2 µM [inhibitor, single point]
CCCN(c1ccccc1F)S(=O)(=O)c1c[nH]c(C(=O)OC)c1 11.2 µM [inhibitor, partial curve, poor fit]
C=CCN1CCN(C(CCC)c2nnnn2Cc2ccco2)CC1 (configuration not stated) 5.01 µM [inhibitor, full curve]
CN(C)c1ccc(/C=N\NC(=S)SCN2C(=O)C3CCC(C)(C2=O)C3(C)C)cc1 (configuration not stated) 12.6 µM [inhibitor, partial curve, poor fit]
CCCCCCOc1ccc(C(=O)NCCCn2ccnc2)cc1 8.91 µM [inhibitor, single point]
O=C(Nc1ccc(F)cc1)NC1CCCCCCC1 12.6 µM [inhibitor, partial curve, poor fit]
CN(Cc1ccccc1)S(=O)(=O)c1ccc(NC(=S)NC(=O)C2CCCC2)cc1 3.98 µM [inhibitor, partial curve, poor fit]
COc1ccccc1N1CCN(CC(=O)NCc2ccc(Cl)cc2)CC1 14.1 µM [inhibitor, partial curve, poor fit]
O=C(NCCCn1ccnc1)c1cc(C(=O)C2CCCCC2)c[nH]1 5.62 µM [inhibitor, full curve, poor fit]
S=C(Nc1ccc(Br)cc1)NC1CCCCC1 10 µM [inhibitor, single point]
COc1ccc2c(c1)N(C(=O)CN1C(=O)C3CCCCC3C1=O)C(C)(C)C=C2C (configuration not stated) 11.2 µM [inhibitor, single point]
Fc1ccc(Nc2nc(N3CCOCC3)c3ccccc3n2)cc1 0.501 µM [inhibitor, full curve, poor fit]
Cc1ccccc1N1C(=O)C(Oc2ccc(Cl)cc2)C1CNCC1CCCO1 (configuration not stated) 28.2 µM [inhibitor, single point]
FC(F)Oc1ccc(NC(=S)NC2CCSc3ccccc32)cc1 (configuration not stated) 11.2 µM [inhibitor, partial curve, poor fit]
O=C(CCn1c(=O)[nH]c2ccsc2c1=O)N(CCc1ccccc1)Cc1ccccc1 28.2 µM [inhibitor, single point]
CCc1cc2c(N3CCN(c4ccccc4)CC3)ncnc2s1 11.2 µM [inhibitor, single point]
Clc1cccc(-c2nnc(-c3ccccc3)o2)c1 28.2 µM [inhibitor, single point]
CCOc1ccccc1NC(=O)NC1CCCc2ccccc21 (configuration not stated) 1.58 µM [inhibitor, full curve, poor fit]
Cc1nc2ccccc2nc(C)c1=NOCc1ccc(Cl)cc1Cl 10 µM [inhibitor, partial curve, poor fit]
c1ccc(C2(Cn3ccc4ccccc43)OCCO2)cc1 8.91 µM [inhibitor, partial curve, poor fit]
C/C(N)=C(/C#N)C(=O)CSc1nnc(SCc2ccc(Cl)cc2)s1 11.2 µM [inhibitor, single point] and 28.2 µM [inhibitor, single point]
CCOC(=O)c1cc(-c2ccccc2)n(-c2cccc(C(=O)Nc3cccc(F)c3)c2)c1C 7.94 µM [inhibitor, partial curve, poor fit]
CC1CCCCC1NC(=O)/C(C#N)=C/c1ccccc1F (configuration not stated) 5.62 µM [inhibitor, partial curve, poor fit]
CCN(CC)S(=O)(=O)c1ccc(NC(=O)c2ccc(OCC3CCCO3)cc2)cc1 (configuration not stated) 7.94 µM [inhibitor, partial curve]
COc1ccc(F)cc1-c1cc(C(=O)NCc2cccc(Cl)c2)[nH]n1 12.6 µM [inhibitor, partial curve, poor fit]
Cc1nn(CCCC(=O)Nc2cc(Oc3ccccc3)cc([N+](=O)[O-])c2)c(C)c1[N+](=O)[O-] 22.4 µM [inhibitor, partial curve, poor fit]
CCCc1cc(=O)n2nc(N3CCC(C(=O)N4CCN(c5ccc(OC)cc5)CC4)CC3)sc2n1 2 µM [inhibitor, partial curve, poor fit]
Cc1cc(C)n(C(=O)/C(C#N)=N/Nc2cc(Cl)cc(Cl)c2)n1 10 µM [inhibitor, partial curve]
O=S(=O)(c1cc(Cl)ccc1Cl)N1CCCCC1 11.2 µM [inhibitor, partial curve, poor fit]
CCN(CC)c1ccc(NC(=O)C2=CCN(S(=O)(=O)c3ccc(F)cc3)CC2)c(C)c1 10 µM [inhibitor, partial curve, poor fit]
Cc1ccc(C)c(-n2nnnc2Sc2nnnn2-c2ccccc2)c1 2.51 µM [inhibitor, full curve, poor fit]
CSc1ccc(Cl)c(C(=O)N2CCOc3ccccc32)c1 28.2 µM [inhibitor, single point]
COCCN(C/C=C/c1ccccc1)C/C=C/c1ccccc1 11.2 µM [inhibitor, single point]
CCOC(=O)Cc1nnc(NC(=O)C23CC4CC(CC(C4)C2)C3)s1 6.31 µM [inhibitor, partial curve, poor fit]
CC(=O)C(=Nc1ccccc1Cl)NNc1ccc(Cl)cc1 12.6 µM [inhibitor, partial curve, poor fit]
O=[N+]([O-])c1ccccc1S(=O)(=O)NCCC1=CCCCC1 31.6 µM [inhibitor, partial curve, poor fit]
CCOc1ccccc1NC(=O)c1c(NC(=O)COc2ccccc2)sc2c1CCCCC2 1.12 µM [inhibitor, full curve, poor fit]
CC(C)CN1CCNC(=O)C1CC(=O)NCCc1ccc(C(F)(F)F)cc1 (configuration not stated) 28.2 µM [inhibitor, single point]
Cc1ccc(N2C(=O)CSC23C(=O)N(CC(=O)NCCc2ccccc2)c2ccccc23)cc1C (configuration not stated) 28.2 µM [inhibitor, single point]
CC(NC(=O)Nc1ccc(Cl)cc1)c1ccc2c(c1)OCO2 (configuration not stated) 10 µM [inhibitor, partial curve]
Cc1cccc(NC(=S)N(Cc2ccco2)C(C)c2cccs2)c1 (configuration not stated) 28.2 µM [inhibitor, single point]
CCC1Nc2ncnc(N3CCCCC3)c2N(Cc2ccccc2)C1=O (configuration not stated) 11.2 µM [inhibitor, partial curve, poor fit]
Cc1c(C=NNc2ccccc2)[nH]c(=O)[nH]c1=O 31.6 µM [inhibitor, single point]
O=C(N/N=C/c1ccc(Br)s1)c1ccncc1 22.4 µM [inhibitor, single point]
COc1ccc(OC)c(-c2cc(C(=O)NCCc3ccccc3)c3c(-c4ccc(C)cc4)[nH]nc3n2)c1 7.94 µM [inhibitor, partial curve, poor fit]
COc1ccc(C)cc1Nc1nc(N)c2ccccc2n1 12.6 µM [inhibitor, single point]
COc1ccc(-c2cc3nc4n(c(=O)c3s2)CCCCC4)cc1 1 µM [inhibitor, full curve, poor fit]
CSCc1cc(N(C)c2ccccc2)nc(-c2ccccc2)n1 15.8 µM [inhibitor, single point]

Activity change, negative = inhibition, inactive:
O=S(=O)(Cc1ccccc1)c1nc2ccccc2n1Cc1ccccn1 0.0124% [at 7.66 µM]
